# Reference: PubChem BioAssay AID485364 (National Center for Advancing Translational Sciences (NCATS), 2010)
# Among all 360,000 compounds or so, about 11,000 (3.1%) were called active. Inconclusive results, whose numbers are uncertain, are shown with a selection of clear calls. Calls follow the shape of the dose curve; as a rule, active = well fitted inhibition curve with a large enough effect; inconclusive = small, poorly fitted or top-dose-only effect; inactive = no such curve, though single readings can be large or run the other way. No potency is given beside an inconclusive call; the fits are too rough.
# Molecular target: Schistosoma mansoni thioredoxin glutathione reductase (TGR) (UniProt Q962Y6)
# Assay: qHTS Assay for the Inhibitors of Schistosoma Mansoni Peroxiredoxins; also: nearly all actives have a fitted effect of over 60% in size
# Conditions: purified TGR, DTNB reduction, TNB absorbance 405 nm; activity change, negative = inhibition: at 114 µM (top of the series) unless noted
# Procedure, shortened: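 TGR 20 nM + NADPH 100 uM (dispensed conc.), cpd preinc 15 min RT; start with NADPH (500 uM addition) then DTNB (15 mM addition). Kinetic TNB absorbance, 405 nm filter. Four-parameter Hill fit across titration.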
# % is scaled to controls: 0 for no effect and ±100 for the full control effect; potency is read from the fitted curve at half-maximal effect; tags tell the direction and shape of the fitted curve.
SMILES,Potency,"activity change, negative = inhibition"
O=[N+]([O-])c1cc2oc3c(c2c(C=NCc2ccncc2)c1O)CCCC3,"inconclusive [inhibitor, partial curve]",–
CCOc1ccc(C(C)=O)cc1Cc1c(O)[nH]c(=S)[nH]c1=O,–,inactive: 4.66%
Clc1ccccc1CSc1nnc(-c2ccco2)c(-c2ccco2)n1,active: 7.94 µM,–
O=C(CN(Cc1ccccc1Cl)C(=O)c1ccc(CN2CCOCC2)o1)NCC1CCCO1 (stereo not drawn),–,inactive: -13.5%
COc1ccc(CCNC2CC(=O)N(CCc3ccccc3)C2=O)cc1 (stereo not drawn),"inconclusive [inhibitor, partial curve]",–
C=C1[C@@H](C)[C@H]2[C@H](Cc3ccccc3)NC(=O)[C@]23OC(=O)/C=C/[C@H](O)CCC[C@@H](C)C/C=C/[C@H]3[C@@H]1O,"inconclusive [inhibitor, partial curve, poor fit]",–
COc1ccc2c(c1)CC(C(=O)Nc1cccc(C)c1C)CO2 (stereo not drawn),–,inactive: 0.0612%
CCOC(=O)c1c(C)oc2c1c(C=NCc1ccccn1)c(O)c1ccccc12,"inconclusive [inhibitor, partial curve]",–
O=C(Nc1ccc(Br)c2ccccc12)c1ccc2ccccc2c1O,"inconclusive [inhibitor, partial curve]",–
COc1ccccc1NS(=O)(=O)c1ccc2nc(CCl)[nH]c2c1,active: 35.5 µM,–
Cc1nn(C)c(Oc2cccc(C(F)(F)F)c2)c1C#N,"inconclusive [inhibitor, single point]",–
C/C(=N\NC(=O)c1cc(O)ccc1O)c1cccc(NC(=O)c2ccc(Cl)cc2)c1,active: 39.8 µM,–
O=C(NCc1ccc(F)cc1)c1ccc(CS(=O)Cc2ccc(Cl)cc2)o1 (stereo not drawn),"inconclusive [inhibitor, full curve]",–
O=C(NC1=NN(c2ccccc2)CC1)Nc1ccccc1F,"inconclusive [inhibitor, partial curve]",–
CCOc1cc(CNc2ccc3[nH]c(=O)[nH]c3c2)ccc1OCC(=O)NC(C)(C)C,"inconclusive [inhibitor, partial curve, poor fit]",–
CCOc1ccc(NC(=O)CN2CCN(CC(=O)Nc3ccc(F)c(F)c3)CC2)cc1,"inconclusive [inhibitor, partial curve]",–
O=C(C1=C(O)C(=O)N(c2ncccn2)C1c1cccs1)c1ccco1 (stereo not drawn),"inconclusive [inhibitor, partial curve]",–
COC(=O)C1=C(c2ccc(F)cc2OCc2ccccc2)C[C@@H]2CC[C@H]1N2C(=O)NC(C)C,–,inactive: -27.1%
